Assay results reported in the supplement of paper PMC3334620.
The full ranking holds about 33,000 sequences; the median of “E-score (-0.5 to 0.5)” is about -0.012, and the highest 2% start at about 0.27. The list shows a part of the results.

Biological target: T1, Vhr1 (UniProt P40522)
T1 sequence: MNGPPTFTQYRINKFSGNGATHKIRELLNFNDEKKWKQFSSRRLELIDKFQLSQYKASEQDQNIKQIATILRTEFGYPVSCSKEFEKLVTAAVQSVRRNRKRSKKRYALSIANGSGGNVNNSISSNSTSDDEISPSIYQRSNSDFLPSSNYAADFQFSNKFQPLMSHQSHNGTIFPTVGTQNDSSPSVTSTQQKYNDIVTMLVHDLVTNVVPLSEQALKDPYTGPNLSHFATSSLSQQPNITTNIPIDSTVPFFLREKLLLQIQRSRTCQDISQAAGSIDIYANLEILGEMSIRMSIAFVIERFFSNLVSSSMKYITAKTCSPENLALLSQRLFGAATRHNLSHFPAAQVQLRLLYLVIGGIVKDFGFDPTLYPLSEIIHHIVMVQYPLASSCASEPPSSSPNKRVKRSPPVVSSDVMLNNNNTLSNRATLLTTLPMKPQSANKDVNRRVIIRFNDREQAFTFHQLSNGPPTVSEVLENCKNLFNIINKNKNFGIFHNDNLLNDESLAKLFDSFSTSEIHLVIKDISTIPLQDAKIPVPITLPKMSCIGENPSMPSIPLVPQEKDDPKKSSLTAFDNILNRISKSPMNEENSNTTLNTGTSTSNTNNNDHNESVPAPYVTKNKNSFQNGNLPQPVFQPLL
Experiment: PBM E-score (8-mer binding enrichment) (E-score (-0.5 to 0.5)); higher = stronger / more preferred TF binding; most listed sequences are background and not binding sites
Conditions: protein concentration: 200 nM; construct: GST-full length
Summary of the method: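 PURExpress in vitro transcription/translation supplied GST-tagged yeast transcription factors, either full-length or DNA-binding domain. Applied at about 100-200 nM to universal all-10-mer Agilent arrays double-stranded by primer extension, the bound protein was detected with fluorescent anti-GST. E-scores, modified Wilcoxon-Mann-Whitney statistics, were given by the Universal PBM Analysis Suite to ungapped eight-base words pooled with their reverse complements after masliner normalisation.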

Row | Sequence | PBM E-score
1 | CTTATGTC | -0.0934
2 | CTATAGCC | -0.207
3 | CGGTGCAC | -0.0366
4 | ACTATTCA | 0.0281
5 | AAGCGCTT | 0.0401
6 | CCGTATAC | -0.0179
7 | CCGAGACA | 0.106
8 | ATCCGGTG | 0.219
9 | CATGGCCC | 0.0652
10 | GCTAAGCA | -0.0472
11 | CGTTGTAA | -0.235
12 | GTAAGATA | -0.00527
13 | ACCCTGGC | -0.0985
14 | ATATGGTA | 0.248
15 | AACGTAGT | -0.125
16 | CACATTGA | 0.108
17 | GGACGAAC | -0.0308
18 | CCGAATAC | 0.193
19 | AAATAATG | -0.0337
20 | CAACTTTA | 0.00592
21 | GAAACGGC | 0.0133
22 | CCAAGCAC | 0.112
23 | GCCCGAGA | 0.147
24 | GATCACAA | 0.0104
25 | ATATACAA | 0.196

Row | Sequence | PBM E-score
26 | TATCAAAA | -0.092
27 | ACTACATC | 0.239
28 | CTCGTCAC | 0.164
29 | CCTCTTGA | -0.0805
30 | GGCCTGTA | -0.214
31 | GTGGGGAA | 0.0488
32 | AAGGCCAT | -0.0754
33 | CTGCGCAC | 0.0623
34 | GTGTGTAA | 0.194
35 | ACGATCGT | 0.131
36 | AGAACCAC | 0.0507
37 | CTCAATTC | -0.0904
38 | CTCACGAG | -0.0986
39 | AGAGGTTC | -0.0731
40 | ATCATGCA | 0.192
41 | GGTGTTAA | 0.00329
42 | GCCGGTCA | -0.086
43 | GCGAAACA | 0.0062
44 | ACCATTGC | -0.0447
45 | CGAGTTAC | 0.149
46 | CCAGATGA | 0.0965
47 | TAGGTCCA | -0.167
48 | ATTATCAC | 0.117
49 | TATCTTAA | -0.0444
50 | AATACGTA | 0.129

Row | Sequence | PBM E-score
51 | ATAAGGAC | -0.0918
52 | CAACGGTA | -0.0273
53 | ACACGTGC | 0.0294
54 | ACGGGAGC | -0.114
55 | CACAGCAG | 0.267
56 | CATGAACG | 0.0516
57 | AGTCTCAC | 0.0608
58 | GGGGGCGA | -0.201
59 | CTGCGTAC | -0.0202
60 | CCCAAGCC | -0.0244
61 | AATCGATT | -0.0451
62 | CAGCCACA | 0.147
63 | CTGGCACC | -0.127
64 | CTAACCTC | -0.00233
65 | AGGCCCAT | -0.199
66 | GAGGCCCC | -0.341
67 | AAAGGAAC | -0.15
68 | GCGCCCAA | 0.00047
69 | TCTATAGA | -0.00193
70 | CCGAGAGC | -0.0932
71 | GCATGGCA | 0.0379
72 | CACCGCAC | 0.105
73 | GCGAAACC | -0.0227
74 | ACGGGTAA | 0.00924
75 | CAGCTTGG | 0.0962

Row | Sequence | PBM E-score
76 | ACCGCGTC | -0.0961
77 | TATCGTAA | 0.11
78 | AAAAGCAG | -0.101
79 | GGTGATAC | 0.0146
80 | ATTAGCAA | 0.124
81 | AAAGGTTA | -0.357
82 | ACCGCCGC | 0.21
83 | ATGAATGA | 0.255
84 | GGAAAGCC | -0.0802
85 | CCCATGAG | 0.227
86 | GTCCCTTA | -0.145
87 | ATTGGCCA | -0.036
88 | TGGTGCAA | -0.259
89 | GGAGTATA | 0.18
90 | GACCTCCA | -0.0067
91 | TCCGGCGA | -0.00689
92 | CCGGACAA | 0.08
93 | AACGCGGC | -0.181
94 | CGGTCTTC | -0.0512
95 | GTGATCGA | 0.166
96 | GTACGCCA | -0.108
97 | CTGACTAC | 0.361
98 | ACTAAACG | -0.0382
99 | GAGAGCTA | -0.158
100 | AACGACGA | 0.083

Row | Sequence | PBM E-score
101 | GAAGATGA | -0.15
102 | ACCGTACA | -0.157
103 | AAACTATC | -0.0315
104 | ACATCATC | 0.166
105 | CTGGGTGC | 0.123
106 | GGCCAATA | -0.134
107 | ACCGGCGA | 0.203
108 | CTCTATAA | -0.207
109 | ATAAGCAC | 0.00956
110 | CATATAGG | 0.0494
111 | TACTGACA | 0.147
112 | ACTGTGAT | -0.0183
113 | TAGCGGCA | -0.165
114 | GGGAGGAA | 0.0727
115 | AAACCAGC | -0.0724
116 | GAAGTGGA | 0.0071
117 | CGATTCCG | 0.0986
118 | CTCGTAGA | -0.319
119 | AGCTTACA | -0.0429
120 | TTATAGAA | -0.144
121 | CGCCACAG | 0.135
122 | AGGCCCAA | -0.129
123 | CCGAAATA | 0.0993
124 | CCTGTTTC | 0.0392
125 | ATTGAAAG | -0.163

Row | Sequence | PBM E-score
126 | AGCAGTCA | 0.256
127 | TGTAGGAA | -0.181
128 | ATGTCCTA | -0.147
129 | ACATCCCT | 0.111
130 | AAATACCG | -0.0804
131 | CACGTCCC | 0.0143
132 | AGGTTGAA | -0.127
133 | AAGAGCTG | 0.0538
134 | TATCGGGA | -0.105
135 | AGTTAGTG | -0.00305
136 | AAATAGAT | 0.0278
137 | TGCCAACA | 0.0278
138 | AAACCGTG | 0.0439
139 | ACTTTTGG | -0.146
140 | TATCCATA | 0.161
141 | CCTGCAGC | -0.139
142 | CCGTTACA | 0.0703
143 | GCCGCATA | 0.0965
144 | ACTCAACG | 0.171
145 | ACGGCGCT | -0.13
146 | ACTTAAGG | -0.0956
147 | ATAGGTGG | 0.0474
148 | ATTGACCC | -0.00745
149 | AACAAGGG | -0.191
150 | ATATTTCA | -0.0213

Row | Sequence | PBM E-score
151 | CTCCCAAA | 0.0311
152 | AAGATCTG | 0.0327
153 | CGCATCAA | 0.11
154 | AAAATGGT | 0.0699
155 | AAACAAAC | -0.157
156 | GGCTCATA | 0.0151
157 | CATTCCGA | 0.0348
158 | CTGATAGC | 0.0382
159 | CAAATCAG | -0.0128
160 | GGGGCCCA | -0.0152
161 | TACGACGA | 0.137
162 | ACCCCAAA | 0.156
163 | CCTAAATA | -0.103
164 | AGCACCTC | -0.13
165 | CGGTTACC | 0.189
166 | GCGTCAAA | 0.0589
167 | ACACGCGT | 0.129
168 | AGTTGCTC | -0.207
169 | GCAACGCC | -0.0569
170 | ATATTAAG | 0.0995
171 | AAAACTTT | -0.187
172 | AACGGCCA | -0.145
